{"source": "PubChem BioAssay AID1345083", "about": "(National Center for Advancing Translational Sciences (NCATS), 2018)", "note": "In all, about 94,000 compounds went through this assay and about 6,200 (6.6%) were called active. Inconclusive results, whose numbers are uncertain, are shown with a selection of clear calls. Calls come from the whole dose curve; as a rule, active = well fitted inhibition curve with a large enough effect; inconclusive = small, poorly fitted or top-dose-only effect; inactive = flat fitted curve, though single readings scatter. Potencies of inconclusive entries are doubtful fits and often do not repeat. % is set by controls: 0 for no effect and ±100 for the full control effect; potency is the fitted concentration of half-maximal effect; tags give direction and shape of the fitted curve.", "data": [{"assay": "Cytotoxic Profiling in HEK 293 Cell Line of Diverse Libraries Using Quantitative High-Throughput Screening; note: nearly all actives have a fitted effect of over 60% in size", "conditions": "HEK 293 viability, ATP luminescence (CellTiter-Glo), 48-72 h; activity change, negative = cytotoxicity: at 115 µM (top of the series) unless noted; series mostly up to 115 µM", "how_it_was_run": "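Viability of HEK 293 cells, plated at 250 cells/well, was judged by cellular ATP after compound treatment for 48 or 72 hr. Luminescence was imaged 10 min after CellTiter-Glo addition at room temperature.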", "values": [{"smiles": "C[C@H]1CN(C(=O)Nc2ccc(F)cc2F)C[C@@H]1c1nc(-c2ccccc2)no1", "Potency": "inconclusive: 79.4 µM [inhibitor, partial curve, poor fit]"}, {"smiles": "O=C(c1ccc(Cl)cc1)N1CCN(CCCn2nc3n(c2=O)CCCC3)CC1", "activity change, negative = cytotoxicity": "inactive: -18.7%"}, {"smiles": "COc1ccc(-c2ccc3nc(-c4cc(F)ccc4F)oc3c2)c(OC)c1OC", "Potency": "inconclusive: 56.2 µM [inhibitor, partial curve, poor fit]"}, {"smiles": "COc1ccccc1C(=O)NC1CCN(c2cc(-c3cccs3)[nH]n2)CC1", "Potency": "inconclusive: 50.1 µM [inhibitor, partial curve, poor fit]"}, {"smiles": "CCOc1ccc2c(n1)CCN(C(=O)C1CCOCC1)C2", "activity change, negative = cytotoxicity": "inactive: 23.3%"}, {"smiles": "COc1cc(F)cc(-c2cccc(COc3cnc4c(ccn4CC(=O)O)c3)c2)c1", "Potency": "inconclusive: 112 µM [inhibitor, single point]"}, {"smiles": "Clc1ccc(-c2cnc([C@@H]3COCCN3C3CCCCC3)[nH]2)cc1", "Potency": "inconclusive: 70.8 µM [inhibitor, full curve, poor fit]"}, {"smiles": "COc1ccccc1CNC(=O)C1CN(C2CCCC2)C(=O)N1", "note": "(centres undefined)", "activity change, negative = cytotoxicity": "inactive: -25% [at 172 µM]"}, {"smiles": "Cc1ccccc1Cc1nc(-c2nnn3c2COC(c2ccc(Cl)cc2)C3)no1", "note": "(centres undefined)", "activity change, negative = cytotoxicity": "inactive: -23.1%"}, {"smiles": "COc1cccc(N2C(=O)NC(=NC3CCCCC3)C23CCN(Cc2cccn2C)C3)c1", "note": "(centres undefined)", "activity change, negative = cytotoxicity": "inactive: -6.91%"}, {"smiles": "Cc1ccc(CN(C(=O)c2ccco2)c2ccc(CC(=O)N3CCCC3)cc2)cc1", "Potency": "inconclusive: 56.2 µM [inhibitor, partial curve, poor fit]"}, {"smiles": "O=C(Nc1ccc2c(N3CCOCC3)ncnc2c1)c1ccco1", "Potency": "inconclusive: 89.1 µM [inhibitor, single point]"}, {"smiles": "Clc1ccc(-c2cnc([C@@H]3COCCN3Cc3ccccn3)[nH]2)cc1", "Potency": "inconclusive: 112 µM [inhibitor, single point]"}, {"smiles": "CCC(=O)Nc1ccc(C(=O)N2CCC3(CC2)CN(C)CCN3C)cc1", "activity change, negative = cytotoxicity": "inactive: -15.2%"}, {"smiles": "O=C(c1ccc2nnc(-c3cccc(OC(F)(F)F)c3)n2c1)N1CCCC1", "activity change, negative = cytotoxicity": "inactive: -19%"}, {"smiles": "CCCC(C)C(=O)N1CCn2nc(C(=O)Nc3ccccc3)cc2C1", "note": "(centres undefined)", "Potency": "active: 35.5 µM"}, {"smiles": "CN1c2cc(C(=O)NCc3nc4ccccc4n3C)ccc2C(=O)N2CCCCCC21", "note": "(centres undefined)", "Potency": "inconclusive: 31.6 µM [inhibitor, partial curve, poor fit]"}, {"smiles": "Cc1ccccc1CN1Cc2nc(Nc3ccccc3)ccc2OCC1=O", "Potency": "active: 70.8 µM"}, {"smiles": "Cc1ccccc1Oc1ncccc1CNC(=O)C(C)(C)n1cccc1", "Potency": "inconclusive: 79.4 µM [inhibitor, partial curve, poor fit]"}, {"smiles": "COc1ccc(-c2ccc(C(=O)N3CCC(NC(=O)c4ccc(Cl)cc4)CC3)cc2)nn1", "Potency": "inconclusive: 50.1 µM [inhibitor, partial curve, poor fit]"}, {"smiles": "O=C(Nc1cnc(-c2ccccc2)nc1)C1CCCC1", "Potency": "inconclusive: 50.1 µM [inhibitor, partial curve, poor fit]"}, {"smiles": "CCCC(=O)N1Cc2ccccc2CC2(CCCCN2Cc2ccncc2)C1", "note": "(centres undefined)", "Potency": "inconclusive: 79.4 µM [inhibitor, partial curve]"}, {"smiles": "CN(C(=O)c1cccc(Cl)c1)C1CCCc2ccccc21", "note": "(centres undefined)", "Potency": "active: 70.8 µM"}, {"smiles": "Cc1ccc(-c2cccc(CN3CCCC(NC(=O)Cc4ccccc4)C3)c2)cc1Cl", "note": "(centres undefined)", "outcome": "inactive"}, {"smiles": "Cc1nc(CCNS(=O)(=O)c2cccnc2)no1", "activity change, negative = cytotoxicity": "inactive: -4.92%"}, {"smiles": "CCc1noc(-c2cn(C3CCN(C(=O)c4ccc(Cl)s4)C3)nn2)n1", "note": "(centres undefined)", "Potency": "inconclusive: 35.5 µM [inhibitor, partial curve, poor fit]"}, {"smiles": "COc1cccc(-c2cccc(C(=O)N3CCN(C(=O)c4ccccc4C)CC3)c2)c1", "Potency": "inconclusive: 56.2 µM [inhibitor, partial curve, poor fit]"}, {"smiles": "COc1ccc(C2NC(=O)N(Cc3nc(C4CCCCC4)no3)C3=C2C(=O)OC3)cc1", "note": "(centres undefined)", "Potency": "inconclusive: 35.5 µM [inhibitor, partial curve]"}, {"smiles": "Cc1cc(F)cc(CN2CCc3nc(C(=O)Nc4ccccc4)oc3CC2)c1", "Potency": "inconclusive: 22.4 µM [inhibitor, full curve, poor fit]"}, {"smiles": "O=C(NCc1cccc(C(F)(F)F)c1)c1nc2sccn2c1-c1cccc(C(F)(F)F)c1", "Potency": "active: 35.5 µM"}, {"smiles": "CN(Cc1ccccc1)C(=O)c1cnc2c(c1)N(C(=O)CCc1ccccc1)CCC2", "Potency": "inconclusive: 100 µM [inhibitor, partial curve]"}, {"smiles": "O=C(Nc1ccccc1)NC1CCCN(Cc2ccc(-c3cncnc3)cc2)C1", "note": "(centres undefined)", "Potency": "inconclusive: 56.2 µM [inhibitor, partial curve, poor fit]"}, {"smiles": "Cc1cncc(C(=O)N2C[C@H]3OC(=O)N(CCc4cccc(Cl)c4)[C@H]3C2)c1", "outcome": "inactive"}, {"smiles": "O=C(C1CCCN1c1nccc(Nc2ccccc2F)n1)N1CCN(c2ncccn2)CC1", "note": "(centres undefined)", "activity change, negative = cytotoxicity": "inactive: -13.3%"}, {"smiles": "O=C(N[C@H](C1CCNCC1)C1CC(O)C1)c1cccc(=O)[nH]1", "note": "(some centres undefined)", "activity change, negative = cytotoxicity": "inactive: 2.13%"}, {"smiles": "COc1ccc(C(=O)N2CCC3(CC2)NC(=O)N(c2ccccc2Cl)N3)cc1F", "Potency": "inconclusive: 79.4 µM [inhibitor, partial curve, poor fit]"}, {"smiles": "O=C(NCC1CCN(c2cc(-c3ccc(F)cc3)[nH]n2)CC1)c1c[nH]c2ccccc12", "Potency": "inconclusive: 39.8 µM [inhibitor, partial curve, poor fit]"}, {"smiles": "COc1cccc(CNC(=O)N2CCCC3(C2)Nc2cccnc2NC3=NC2CCCC2)c1", "note": "(centres undefined)", "Potency": "inconclusive: 56.2 µM [inhibitor, partial curve, poor fit]"}, {"smiles": "CCc1ncn2ccn(Cc3ccccc3F)c(=O)c12", "activity change, negative = cytotoxicity": "inactive: -7%"}, {"smiles": "CCc1cnc(C)nc1N1CCOC(c2ccc(Cl)cc2)C1", "note": "(centres undefined)", "Potency": "active: 11.2 µM"}, {"smiles": "COc1ccccc1OCCNC(=O)C1CCCN(C(=O)c2ccccc2)CCC(=O)NCC1", "note": "(centres undefined)", "outcome": "inactive"}, {"smiles": "COc1ccccc1NC(=O)c1cc(-c2ccccc2C(F)(F)F)nc2c1cnn2C", "Potency": "active: 44.7 µM"}, {"smiles": "O=C(c1cscn1)N1CCCC(CCc2cccc(F)c2)C1", "note": "(centres undefined)", "Potency": "inconclusive: 100 µM [inhibitor, partial curve, poor fit]"}, {"smiles": "COc1ccccc1-c1nnc2ccc(C(=O)NCc3cccc(C(F)(F)F)c3)cn12", "Potency": "inconclusive: 44.7 µM [inhibitor, partial curve, poor fit]"}]}]}
